Data taken from US20230242645A1 (WUXI BIOLOGICS SHANGHAI, published 2023).

Tests used:
[1] = target: T1, human VEGF (WBP325-hPro1, Sino Biological, 11066-HNAB) (human, UniProt P15692-4 27-191); test: ELISA, plate coated with 0.25 µg/ml human VEGF
T1 construct: Bought protein; also called antigen-1
T1 sequence (looked up): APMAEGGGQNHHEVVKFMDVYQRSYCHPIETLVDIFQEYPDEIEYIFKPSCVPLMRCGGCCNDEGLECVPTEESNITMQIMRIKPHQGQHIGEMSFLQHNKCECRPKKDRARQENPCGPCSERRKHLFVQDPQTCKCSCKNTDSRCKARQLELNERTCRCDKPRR

[2] = target: T2, human PD-L1 extracellular domain, his tag (W315-hPro1.ECD.his) (human, UniProt Q9NZQ7 in part); test: SPR (Biacore T200), antibody captured on anti-human Fc, antigen as analyte, 25 °C
T2 construct: extracellular domain; Analyte in SPR; also called W315-hPro1.ECD.his (PD-L1); ECD of PD-L1; not shown: C-terminal his tag (6xhis)
Description: (§1) Biacore T200, Series S Sensor Chip CM5, Amine Coupling Kit, and 10×HBS-EP were purchased from GE Healthcare. The antibody was captured onto the anti-human Fc IgG (Jackson, 109-005-098) surface immobilized on CM5-biosensor chip (GE Healthcare Inc.). The assay was performed at 25° C. with HBS-EP+ buffer (GE Healthcare Inc.) as running and dilution buffer. Serially diluted PD-L1 antigen or VEGF antigen (W315-hPro1.ECD.his or W325-hPro1.his) and running buffer were injected for an association phase and followed dissociation phase detection. Regeneration of the chip surface was reached by an injection of 10 mM Glycine, pH 1.5.
(§2) The on-rate constant (ka) and off-rate constant (kd) were also measured in the mean time. Final data of each interaction was deducted from reference channel and buffer channel data.

[3] = target: T3, human VEGF, his tag (W325-hPro1.his) (human, UniProt P15692-4 27-191, limits assumed); test: as above
T3 construct: Analyte in SPR; also called WBP325-hPro1. his; W325-hPro1.ECD.his (VEGF); not shown: C-terminal his tag (6xhis)
T3 sequence (looked up): T1 sequence (looked up)
Description: as §1, §2

[4] = target: T1, human VEGF (WBP325-hPro1, Sino …); test: cell-based or functional assay
[5] = target: T4, human PD-L1 on CHO-K1 cells (WBP315.CHO-K1.hPro1.C11) (human, UniProt Q9NZQ7); test: flow cytometry on human PD-L1 expressing CHO-K1 cells
T4 construct: whole, on cells; also called engineered human PD-L1 expressing cells
Description: Engineered human PD-L1 expressing cells (WBP315.CHO-K1.hPro1.C11) were seeded at 1×10⁵ cells/well in U-bottom 96-well plates. […] UIgG1 was added to the cells. Plates were incubated at 4° C. for 1 hour. After wash, FITC-labeled goat anti-human IgG (Jackson ImmunoResearch, 109-095-008) was added to each well and the plates were incubated at 4° C. for 1 hour. The binding of the antibodies onto the cells was tested by flow cytometry and the mean fluorescence intensity (MFI) was analyzed by FlowJo.

[6] = target: T5, human PD-L1 extracellular domain, mouse Fc (PD-L1.ECD.mFc, W3153-hPro1.ECD.mFc) (human, UniProt Q9NZQ7 in part); test: dual binding ELISA: antibody titrated on coated PD-L1.ECD.mFc, signal from biotinylated human VEGF (his) at 0.5 ug/ml (needs both arms)
T5 construct: extracellular domain; also called WBP315-hPro1.ECD.mFc; antigen-2; not shown: mouse Fc tag at the C-terminus

[7] = target: T1, human VEGF (WBP325-hPro1, Sino …); test: dual binding ELISA: antibody titrated on coated human VEGF, signal from biotinylated PD-L1.ECD.mFc at 0.5 ug/ml (needs both arms)

B1: W3256-U15T2.G6-1.uIgG1 (bispecific antibody)
heavy: EVQLVESGGGLVQPGGSLRLSCAASGYTFTNYGMNWVRQAPGKGLEWVGWINTYTGEPTYAADFKRRFTFSLDTSKSTAYLQMNSLRAEDTAVYYCAKYPHYYGSSHWYFDVWGQGTLVTVSSASTKGPSVFPLAPSSKSTSGGTAALGCLVKDYFPEPVTVSWNSGALTSGVHTFPAVLQSSGLYSLSSVVTVPSSSLGTQTYICNVNHKPSNTKVDKRV[skipping human IgG1 Fc]
light: EVQLVESGGGLVQPGGSLRLSCAASGHFSNLAVNWFRQAPGKERELVAGILWSGGSTFYADSVKGRFTISRGNAENMLYLQMNSLRAEDTAVYYCNTGTNWGQGTLVTVSSGGGGSGGGGSDIQMTQSPSSLSASVGDRVTITCSASQDISNYLNWYQQKPGKAPKVLIYFTSSLHSGVPSRFSGSGSGTDFTLTISSLQPEDFATYYCQQYSTVPWTFGQGTKVEIKRTVAAPSVFIFPPSDEQLKSGTASVVCLLNNFYPREAKVQWKVDNALQSGNSQESVTEQDSKDSTYSLSSTLTLSKADYEKHKVYACEVTHQGLSSPVTKSFNRGEC
notes: Anti-VEGF x anti-PD-L1 bispecific antibody; the VHH is fused to the N-terminus of the light chain of Bevacizumab; human IgG1; also called W3256 antibody
An EC50 [1] of about 0.095 nM, a Kd [2] of 0.155 nM and a koff [2] of 0.000333 s⁻¹ were found for B1 in this work. It also gave a kon [2] of 2.14e+06 M⁻¹ s⁻¹, a Kd [3] of 0.0153 nM and a koff [3] of 3.64e-05 s⁻¹. For the same binder, the kon [3] was 2.38e+06 M⁻¹ s⁻¹, the “IC50 of inhibition of VEGF-induced HUVEC proliferation (CellTiter Glo)” value [4] was about 12 nM and the EC50 [5] was about 0.128 nM. The “EC50 (read off the curve)” value [6] was about 0.1 nM and the “EC50 (read off the curve)” value [7] was about 0.2 nM.
